Data as given in PubChem BioAssay AID485294 (National Center for Advancing Translational Sciences (NCATS), 2010).
The campaign covered roughly 370,000 compounds. About 150 (0.041%) were called active. The inconclusive results got no clear call from the source; some entries with a clear call stand among them for comparison. Calls follow the shape of the dose curve; as a rule, active = well fitted inhibition curve with a large enough effect; inconclusive = small, poorly fitted or top-dose-only effect; inactive = flat fitted curve, though single readings scatter. Potencies of inconclusive entries are left out as doubtful fits.

biological target: Beta-lactamase (Escherichia coli (strain K12)) (UniProt P00811); assay: qHTS Inhibitors of AmpC Beta-Lactamase (assay with detergent); conditions: AmpC hydrolysis of nitrocefin, absorbance 480 nm, 0.01% Triton; activity change, negative = inhibition: at 114 µM (top of the series); also: nearly all actives have a fitted effect of over 25% in size;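 as to activity change, negative = inhibition: 0% = no-compound wells and -100% = no-enzyme wells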
Procedure, shortened: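 20 mM phosphate pH 7.0 + 0.01% (detergent screen) or 0.0001% Triton X-100; 5.3 nM AmpC reagent; cpd preinc 15 min RT; nitrocefin (800 uM stock) to start; A480 q20 s × 4 min; Activity was normalised to no-enzyme and no-compound control wells.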
Potency is read from the fitted curve at half-maximal effect; tags tell the direction and shape of the fitted curve.

UniProt P00811, sequence (P00811 whole entry, looked up): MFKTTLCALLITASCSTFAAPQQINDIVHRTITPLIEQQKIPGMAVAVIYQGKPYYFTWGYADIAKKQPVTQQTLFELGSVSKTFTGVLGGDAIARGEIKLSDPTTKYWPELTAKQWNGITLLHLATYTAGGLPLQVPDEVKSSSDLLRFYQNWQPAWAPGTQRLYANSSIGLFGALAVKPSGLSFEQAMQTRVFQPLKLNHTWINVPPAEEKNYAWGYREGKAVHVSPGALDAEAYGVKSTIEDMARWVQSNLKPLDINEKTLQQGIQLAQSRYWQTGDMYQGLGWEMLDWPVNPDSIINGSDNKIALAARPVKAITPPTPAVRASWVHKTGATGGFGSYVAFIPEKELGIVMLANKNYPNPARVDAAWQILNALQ

SMILES | Potency | activity change, negative = inhibition
CCOC(=O)Nc1nc(-c2ccccc2)c(C(=O)c2ccc(Cl)cc2)s1 | inconclusive [inhibitor, full curve, poor fit] | –
Cc1ccc(NS(=O)(=O)c2c(C)[nH]c(=O)[nH]c2=O)cc1C | inconclusive [inhibitor, full curve] | –
COc1cccc(CNC(=O)CCCC(=O)NC(C)CCc2ccccc2)c1 (stereo not drawn) | inconclusive [inhibitor, full curve, poor fit] | –
CCOC(=O)c1ccc(NC(=S)N2CCC(C(N)=O)(N3CCCCC3)CC2)cc1 | – | inactive: 4.77%
Cc1cccc(-n2c(-c3ccco3)n[nH]c2=S)c1 | inconclusive [inhibitor, partial curve, poor fit] | –
COc1ccccc1C1CC(c2ccc(Cl)cc2)Nc2nc(N)nn21 (stereo not drawn) | inconclusive [inhibitor, partial curve] | –
CCNc1nnc(CSc2nc3ccccc3s2)s1 | inconclusive [inhibitor, partial curve] | –
COc1cccc(NS(=O)(=O)c2cn(C)c(=O)n(C)c2=O)c1 | inconclusive [inhibitor, full curve] | –
COP(=O)(OC)C1(O)C(=O)Nc2ccc(Br)cc21 (stereo not drawn) | inconclusive [inhibitor, full curve] | –
C=CCc1cc(OC)ccc1OCCCCn1cncn1 | inconclusive [inhibitor, partial curve] | –
O=C(Cn1c(C(=O)O)cc2ccccc21)c1ccccc1 | inconclusive [inhibitor, full curve, poor fit] | –
COc1cccc(-c2nn(-c3ccccc3)cc2CO)c1 | – | inactive: -9.96%
CCc1nnc(SCc2cccc(F)c2)c2cc3sc(C)cc3n12 | – | inactive: -3.86%
Fc1ccccc1/C=N/n1c(-c2cccnc2)n[nH]c1=S | inconclusive [inhibitor, full curve, poor fit] | –
CC(NC(=O)C(c1ccccc1)c1ccccc1)C(=O)N1CCCCC1 (stereo not drawn) | inconclusive [inhibitor, full curve, poor fit] | –
CCCc1c(C)nc2ccccc2c1SCCC#N | – | inactive: 1.16%
COc1ccc(N2C(=O)CC(NNC(=O)c3ccco3)C2=O)cc1 (stereo not drawn) | inconclusive [inhibitor, full curve, poor fit] | –
CCN1CNC(=S)N(c2cc(C)ccc2C)C1 | inconclusive [inhibitor, partial curve, poor fit] | –
Cc1nc(NC(=O)CSC2=NCCS2)sc1C(=O)N(C)C | – | inactive: -0.0466%
Nc1c(C(=O)Nc2ccc(Cl)c(C(F)(F)F)c2)sc2nc3c(cc12)N1CCC3CC1 | – | inactive: -1.31%
O=C(COc1ccccc1)Nc1ccc(-c2ccc(N3CCOCC3)nn2)cc1 | inconclusive [inhibitor, partial curve] | –
COc1ccc(NS(=O)(=O)c2ccc3c(c2)CCC(=O)N3)c(OC)c1 | inconclusive [inhibitor, single point] | –
COc1cccc2cc(S(=O)(=O)c3ccc(C)cc3)/c(=N/NS(=O)(=O)c3ccc(C)cc3)oc12 | inconclusive [inhibitor, partial curve, poor fit] | –
CCN(CC)CCN1Cc2ccccc2C1=N | inconclusive [inhibitor, full curve, poor fit] | –
O=C(NCCCc1ccncc1)C1CCC(=O)N(Cc2ccc(Cl)cc2)C1 (stereo not drawn) | inconclusive [inhibitor, full curve] | –

SMILES | Potency | activity change, negative = inhibition
Cc1ccccc1NC(=O)CSc1nc(-c2ccc(F)cc2)nc2c1Cc1ccccc1O2 | – | inactive: 9.25%
CCOc1ccc(C(=O)NCC2OCCc3ccccc32)cc1 (stereo not drawn) | inconclusive [inhibitor, full curve, poor fit] | –
Cc1ccc(/C=N/NC(=O)c2ccco2)cc1 | – | inactive: -8.5%
Cc1ccc(NC(=S)N(CCCN2CCCC(C)C2)Cc2ccco2)cc1C (stereo not drawn) | – | inactive: -8.16%
Cc1ccc(C)n1NC(=O)c1ccccc1Cl | inconclusive [inhibitor, single point] | –
O=C(C1=COCCO1)N1CCN(S(=O)(=O)c2cccc(Cl)c2Cl)CC1 | inconclusive [inhibitor, full curve, poor fit] | –
O=C(CCC1N=C2c3ccccc3N=C(SCc3ccccc3Cl)N2C1=O)NCCc1ccccc1 (stereo not drawn) | – | inactive: 17.5%
Cc1nc(Nc2ccc(Cl)c(Cl)c2)sc1C(=O)Nc1ccccc1 | inconclusive [inhibitor, full curve] | –
O=C(NNS(=O)(=O)c1ccccc1)c1ccc(F)cc1 | inconclusive [inhibitor, full curve, poor fit] | –
Cc1cc(C)nc(NS(=O)(=O)c2ccc(NC(=O)c3ccccc3O)cc2)n1 | – | inactive: 0.228%
CC(=O)COc1ccc2cc(-c3ccccc3)c(=O)oc2c1 | inconclusive [inhibitor, single point] | –
CCn1c(SCCN2CCOCC2)nc2c1c(=O)n(C)c(=O)n2C | inconclusive [inhibitor, full curve] | –
COc1ccc(N(CC(=O)Nc2ccc3c(c2)OCCO3)S(C)(=O)=O)c(OC)c1 | inconclusive [inhibitor, full curve] | –
CCOC(=O)C1CCN(C(=O)c2sc3nc(-c4ccc(F)cc4)cn3c2C)CC1 | inconclusive [inhibitor, single point] | –
CC1(c2ccccc2)NC(=O)N(CC(=O)NCC2CCCO2)C1=O (stereo not drawn) | inconclusive [inhibitor, full curve, poor fit] | –
O=C(CNc1ccccc1)N/N=C/c1cc([N+](=O)[O-])ccc1N1CCCC1 | – | inactive: -0.259%
COc1ccccc1N(C)S(=O)(=O)c1ccc(C(=O)O)cc1 | inconclusive [inhibitor, full curve, poor fit] | –
CCCc1ccc(OCc2ccc(C(=O)OC)o2)c(OC)c1 | – | inactive: -1.46%
Cc1ccc(C(=O)Oc2cc(-c3ccccc3)no2)cc1 | – | inactive: 1.43%
Nn1c(SCC(=O)Nc2ccc(F)cc2)nnc1-c1cccnc1 | inconclusive [inhibitor, full curve, poor fit] | –
CN(C)CCNc1ncnc2c1cnn2-c1ccc(Cl)cc1 | – | inactive: -12%
CCN1CCN(C(=O)C2CC(c3ccc(F)cc3)=NO2)CC1 (stereo not drawn) | inconclusive [inhibitor, full curve] | –
CC(C)Sc1nnc([C@H](Cc2ccccc2)NC(=O)OC(C)(C)C)o1 | – | inactive: 1.69%
O=C(NCc1cccnc1)C1c2ccccc2C(=O)N1Cc1ccccc1 (stereo not drawn) | – | inactive: 0.781%
CC1=C(C(=O)Nc2cccnc2)C(c2ccccc2)n2nc(SCc3ccccc3)nc2N1 (stereo not drawn) | – | inactive: -8.8%

SMILES | Potency | activity change, negative = inhibition
CSc1nccc(NC(=O)c2cccc(Br)c2)n1 | – | inactive: 0.927%
CC(C)OC(=O)c1nnn(-c2nonc2N)c1CSc1ccccn1 | inconclusive [inhibitor, full curve, poor fit] | –
O=C1CC(C(=O)Nc2cc(Cl)ccc2Cl)n2ncnc2N1 (stereo not drawn) | – | inactive: -1.27%
O=C(CCc1ccccc1)NC(=S)Nc1ccc(S(=O)(=O)N2CCOCC2)cc1 | inconclusive [inhibitor, partial curve, poor fit] | –
CCOC(=O)C1C(=O)NC(SCC(N)=O)=C(C#N)C1c1ccccc1OCC (stereo not drawn) | inconclusive [inhibitor, partial curve, poor fit] | –
COc1ccc(-n2nnnc2SCC(=O)Nc2cc(OC)c([N+](=O)[O-])cc2C)cc1 | – | inactive: -4.07%
CC(C)c1ccc(NC2CCCN(C(=O)c3ccsc3)C2)cc1 (stereo not drawn) | – | inactive: 0.827%
Cc1c(CN(C)C(=O)c2nn(C)cc2[N+](=O)[O-])cnn1C | inconclusive [inhibitor, partial curve] | –
Cc1ccc(CNC(=O)Nc2ccccc2)n1C | – | inactive: -1.29%
Cc1nn(Cc2noc(C(=O)NCc3cccc(F)c3)n2)c(C)c1Br | – | inactive: -2.14%
Cc1ccc(Cl)cc1N(C)C(=O)c1noc2c1CCCCC2 | – | inactive: 5.85%
CCOC(=O)N1CCN(Cc2nc3ccc([N+](=O)[O-])cc3c(=O)n2-c2ccccc2F)CC1 | inconclusive [inhibitor, single point] | –
CC1(C)CC2CC(C)(CN2/C=N/c2sc3c(c2C#N)CC(C)(C)NC3(C)C)C1 (stereo not drawn) | – | inactive: -4.13%
Cc1ccc(NC2=C(NC(=O)c3ccccc3)C(=O)c3ccccc3C2=O)cc1Cl | – | inactive: 0.725%
O=C(CCN(CCO)Cc1ccccc1)Nc1ccc(Br)cc1 | inconclusive [inhibitor, full curve] | –
CC(=O)c1cccc2c(O)c(C3=Nc4ccccc4C3=O)[nH]c12 | inconclusive [inhibitor, single point] | –
OCCn1nc2c3ccccc3nc-2n(-c2ccccc2)c1=S | inconclusive [inhibitor, full curve, poor fit] | –
COCCNC(=S)NNC(=O)c1cc(-c2cccnc2)nc2ccccc12 | – | inactive: 1.3%
O=C(NCc1ccccc1)C1C(=O)N(Cc2ccccc2)C(=O)C1C1(O)CCCC1 (stereo not drawn) | inconclusive [inhibitor, full curve, poor fit] | –
CC(=O)c1ccc(NC(=O)Nc2ccc([N+](=O)[O-])cc2C)cc1 | inconclusive [inhibitor, full curve, poor fit] | –
CCCc1nnc(NC(=O)CCC(=O)N2CCN(Cc3ccc(F)cc3)CC2)s1 | inconclusive [inhibitor, partial curve] | –
CCOC(=O)C1C(c2ccccc2)C(C(=O)OCC)C1c1ccccc1 (stereo not drawn) | inconclusive [inhibitor, single point] | –
Cc1ccc(NC(=O)CNC(=O)N2CC(=O)Nc3ccccc32)cc1F | – | inactive: -1.42%
